The results in this text go back to patent US20240199762A1 (PHILOGEN S P A, published 2024).

The target in the assay is T1, human FAP-ECD (extracellular domain) recombinant fragment containing a C-terminal His6 tag (human, UniProt Q12884 26-760, randomly biotinylated with NHS ester-activated biotin (as used on the SA chip and Streptawell plates)).
T1 construct: also called biotinylated human FAP-ECD; biotinylated human FAP
T1 sequence: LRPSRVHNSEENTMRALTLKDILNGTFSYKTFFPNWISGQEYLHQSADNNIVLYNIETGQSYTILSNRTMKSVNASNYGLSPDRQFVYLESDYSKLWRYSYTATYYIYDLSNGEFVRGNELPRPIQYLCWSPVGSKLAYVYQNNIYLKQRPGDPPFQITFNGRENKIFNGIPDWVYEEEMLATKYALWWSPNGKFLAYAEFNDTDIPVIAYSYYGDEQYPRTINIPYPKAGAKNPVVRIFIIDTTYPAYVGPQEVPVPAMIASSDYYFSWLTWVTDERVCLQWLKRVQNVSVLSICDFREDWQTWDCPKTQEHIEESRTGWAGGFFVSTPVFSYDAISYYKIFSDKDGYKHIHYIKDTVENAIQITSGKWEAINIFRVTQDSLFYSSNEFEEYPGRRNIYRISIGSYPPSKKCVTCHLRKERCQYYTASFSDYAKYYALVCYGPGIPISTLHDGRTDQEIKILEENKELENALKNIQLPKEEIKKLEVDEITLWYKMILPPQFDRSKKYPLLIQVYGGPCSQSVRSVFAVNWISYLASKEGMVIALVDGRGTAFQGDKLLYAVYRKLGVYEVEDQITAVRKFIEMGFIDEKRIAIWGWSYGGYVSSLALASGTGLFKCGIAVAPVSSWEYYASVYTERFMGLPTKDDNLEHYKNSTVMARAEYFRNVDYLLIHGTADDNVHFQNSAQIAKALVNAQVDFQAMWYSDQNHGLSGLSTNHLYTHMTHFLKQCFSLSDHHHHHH
The assay is described as follows: SPR, BIAcore X100, biotinylated human FAP-ECD on SA chip (1500 RU), monomeric scFv injected. Here is the method: Affinity measurements of the C5 and 7NP2 scFv antibodies were performed by Surface Plasmon Resonance using BIAcore X100 instrument with a biotinylated human FAP-ECD coated SA chip. A final coating of 1500 RU was achieved.
Samples were injected at a concentration of […], 450 nM and 225 nM for the C5 scFv and of 1350 nM, 675 nM, 338 nM and 170 nM for the 7NP2 scFv. No regeneration of the SA chip was performed between each run, scFvs were left to detach from the antigen. KD measurements were assessed using the BIAevaluation 3.2 software.
(SPR reads the build-up and loss of mass on a sensor chip optically.)

B1: anti-FAP antibody C5 in scFv format (scFv)
scFv: [about 100 residues not given here]RLAWFDYWGQGTLVTVSSGGGGSGGGGSGGGGEIVLTQSPGTLSLSPGERATLSCRASQSVSSSYLAWYQQKPGQAPRLLIYGASSRATGIPDRFSGSGSGTDFTLTISRLEPEDFAVYYCQQSGKGPLTFGQGTKVEIK
notes: The monomeric scFv was used in BIAcore; also called C5 scFv; scFv(C5)
In general, Kd refers to a measure of binding affinity in units of concentration. B1: the Kd was determined as 130 nM.
